“And” between values parts separate entries of the source, which are not always exact repeats. Equal entries are not always repeated. The inconclusive results got no clear call from the source; some entries with a clear call stand among them for comparison. For part of these data: Potencies beside an inconclusive call are fits to weak or partial responses and may not hold up. The source made the active and inactive calls. Calls follow the shape of the dose curve; as a rule, active = well fitted curve in the direction sought with a large enough effect; inconclusive = small, poorly fitted or top-dose-only effect, or another doubt; inactive = no such curve, though single readings can be large; an effect the other way counts as inactive or inconclusive.
Assays:
[1] = Viability qHTS for spleen associated tyrosine kinase inhibitor (SYKi) naive MV4-11 cells (AID 1963823); conditions: MV4-11 AML viability, CellTiter-Glo luminescence, 72 h; series mostly up to 45 µM; also: nearly all actives have a fitted effect of over 40% in size
Procedure, shortened: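 qHTS, SYK inhibitor-naive MV4-11; 500 cells/well; 72 hr compound exposure, 37 C; CellTiter-Glo added, 10 min RT; luminescence read.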

[2] = Viability qHTS for spleen associated tyrosine kinase inhibitor (SYKi) drug resistant MV4-11 cells (AID 1963824); also: nearly all actives have a fitted effect of over 35% in size
Procedure, shortened: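 SYK inhibitor-resistant MV4-11 AML cells, 500 per well, added to predispensed compounds and incubated 72 hr at 37 C, 5% CO2. Viability measured by CellTiter-Glo luminescence after 10 min at room temperature.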

[3] = Quantitative highthroughput screen to assess conditional lethalithy of NOMO1 cells grown in RPMI1640 with untreated serum (RPMI+s) (AID 1963876); conditions: NOMO1 AML cells in RPMI+serum, CellTiter-Glo viability, 48 h; viability: at 45.8 µM (top of the series); also: nearly all actives have a fitted effect of over 35% in size
Procedure, shortened: (§1)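 Each medium arm—HPLM with 10% dialyzed FBS, or RPMI1640 with 5 mM glucose and 10% untreated or dialyzed FBS—was screened against an 11-point, 3-fold compound titration for 48 h at 37 °C, with CellTiter-Glo luminescence as endpoint.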

[4] = Quantitative highthroughput screen to assess conditional lethalithy of NOMO1 cells grown in RPMI1640 with dialyzed fetal bovine serum (RPMI+ds) (AID 1963877); also: nearly all actives have a fitted effect of over 30% in size
Procedure, shortened: as §1

[5] = Quantitative highthroughput screen to assess conditional lethalithy of NOMO1 cells grown in Human Plasma-Like Medium with dialyzed fetal bovine serum (HPLM+ds) (AID 1963878); conditions: NOMO1 AML cells in HPLM+ds, CellTiter-Glo viability, 48 h; viability: at 45.8 µM (top of the series); also: nearly all actives have a fitted effect of over 35% in size
Procedure, shortened: as §1

[6] = Quantitative highthroughput screen to assess conditional lethalithy of P12 Ichikawa cells grown in Human Plasma-Like Medium with dialyzed fetal bovine serum (HPLM+ds) (AID 1963879); conditions: Potency: viability; also: nearly all actives have a fitted effect of over 35% in size
Procedure, shortened: as §1

[7] = Quantitative highthroughput screen to assess conditional lethalithy of P12 Ichikawa cells grown in RPMI1640 with dialyzed fetal bovine serum (RPMI+ds) (AID 1963880); conditions: Potency: P12-Ichikawa viability; also: nearly all actives have a fitted effect of over 35% in size
Procedure, shortened: as §1

[8] = Quantitative highthroughput screen to assess conditional lethalithy of P12 Ichikawa cells grown in RPMI1640 with untreated serum (RPMI+s) (AID 1963881); conditions: Potency: viability; also: nearly all actives have a fitted effect of over 35% in size
Procedure, shortened: as §1

[9] = Quantitative highthroughput screen to assess conditional lethalithy of SEM cells grown in Human Plasma-Like Medium with dialyzed fetal bovine serum (HPLM+ds) (AID 1963882); also: nearly all actives have a fitted effect of over 35% in size
Procedure, shortened: as §1

[10] = Quantitative highthroughput screen to assess conditional lethalithy of SEM cells grown in RPMI1640 with dialyzed fetal bovine serum (RPMI+ds) (AID 1963884); conditions: SEM B-ALL cells, RPMI+dialyzed FBS, CellTiter-Glo viability, 48 h; viability: at 45.8 µM (top of the series); also: nearly all actives have a fitted effect of over 35% in size
Procedure, shortened: as §1

[11] = Quantitative highthroughput screen to assess conditional lethalithy of SEM cells grown in RPMI1640 with unreated serum (RPMI+s) (AID 1963883); conditions: SEM B-ALL cells, CellTiter-Glo viability, 48 h; viability: at 45.8 µM (top of the series); also: nearly all actives have a fitted effect of over 35% in size
Procedure, shortened: as §1

[12] = Cellular viability qHTS for adrenocortical cancer (ACC) cell line NCI-H295R (AID 1963990); conditions: CellTiter-Glo ATP luminescence, 48 h; series mostly up to 46.1 µM; also: nearly all actives have a fitted effect of over 60% in size
Procedure, shortened: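 IC50 and maximal efficacy derive from four-parameter logistic modelling of titration curves, with reads scaled between DMSO-only wells (0%) and doxorubicin hydrochloride (100% inhibition). Compounds spanned up to 46 uM over 48 h.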
Potency is read from the fitted curve at half-maximal effect; tags tell the direction and shape of the fitted curve.

Structure (SMILES)	Potency [1]	Potency [2]	Potency [3]	Potency [4]	Potency [5]	Potency [6]	Potency [7]	Potency [8]	Potency [9]	Potency [10]	Potency [11]	Potency [12]
Cc1csc(-c2nnc(Nc3ccc(Oc4ncccc4-c4ccnc(N)n4)cc3)c3ccccc23)c1	inconclusive: 6.51 µM [cytotoxic, partial curve] and inconclusive: 4.68 µM [cytotoxic, partial curve]	inconclusive: 11.6 µM [cytotoxic, partial curve] and inconclusive: 5.9 µM [cytotoxic, full curve]	inconclusive: 0.0093 µM [cytotoxic, full curve, poor fit]	inconclusive: 0.0059 µM [cytotoxic, full curve, poor fit]	inconclusive: 0.0118 µM [cytotoxic, full curve, poor fit]	active: 0.0105 µM	inconclusive: 0.0105 µM [cytotoxic, full curve]	inconclusive: 0.0118 µM [cytotoxic, full curve]	inconclusive: 0.0148 µM [cytotoxic, full curve]	inconclusive: 0.0148 µM [cytotoxic, full curve]	–	–
CC(C)Nc1cc(-c2c[nH]c(C(=O)N[C@H](CO)c3cccc(Cl)c3)c2)c(Cl)cn1	inconclusive: 5.17 µM [cytotoxic, partial curve]	inconclusive: 2.91 µM [cytotoxic, full curve]	active: 14.8 µM	inconclusive: 5.88 µM [cytotoxic, partial curve]	inconclusive: 5.24 µM [cytotoxic, partial curve]	inconclusive: 16.6 µM [cytotoxic, partial curve]	inconclusive: 13.2 µM [cytotoxic, partial curve]	inconclusive: 14.8 µM [cytotoxic, partial curve]	–	active: 16.6 µM	active: 18.6 µM	active: 8.91 µM

— PubChem BioAssay (NCATS)
